“And” between values parts separate entries of the source, which are not always exact repeats. Identical values can stand only once. The inconclusive results got no clear call from the source; some entries with a clear call stand among them for comparison. For some of these results: Where the call is inconclusive, the potency comes from a doubtful curve fit. The source made the active and inactive calls. Unless noted, calls come from the whole dose curve; as a rule, active = well fitted curve in the direction sought with a large enough effect; inconclusive = small, poorly fitted or top-dose-only effect, or another doubt; inactive = no such curve, though single readings can be large; an effect the other way counts as inactive or inconclusive.
How the values were obtained:
[1] = test system: Zika virus NS2B-NS3 protease (unlinked); assay: Optimization of GU AMC qHTS for Zika virus inhibitors: Unlinked NS2B-NS3 protease assay (AID 1347151);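 note: 0% = no-inhibitor control and -100% = no-enzyme control; nearly all actives have a fitted effect of over 80% in size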
Outline: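 Fluorescence gain (340/450 nm) over 15 min at room temperature, ~20% conversion, gave percent inhibition fitted to a 4-parameter Hill equation; enzyme was unlinked NS2B-NS3 (25 nM final), pH 8.0 Tris buffer.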

[2] = molecular target: Cytochrome P450 1A2 (Homo sapiens) (UniProt P05177); assay: p450-cyp1a2 (AID 410; calls by dose curve; note: potency is the fitted concentration of half-maximal effect)
UniProt P05177, sequence (P05177 whole entry, looked up): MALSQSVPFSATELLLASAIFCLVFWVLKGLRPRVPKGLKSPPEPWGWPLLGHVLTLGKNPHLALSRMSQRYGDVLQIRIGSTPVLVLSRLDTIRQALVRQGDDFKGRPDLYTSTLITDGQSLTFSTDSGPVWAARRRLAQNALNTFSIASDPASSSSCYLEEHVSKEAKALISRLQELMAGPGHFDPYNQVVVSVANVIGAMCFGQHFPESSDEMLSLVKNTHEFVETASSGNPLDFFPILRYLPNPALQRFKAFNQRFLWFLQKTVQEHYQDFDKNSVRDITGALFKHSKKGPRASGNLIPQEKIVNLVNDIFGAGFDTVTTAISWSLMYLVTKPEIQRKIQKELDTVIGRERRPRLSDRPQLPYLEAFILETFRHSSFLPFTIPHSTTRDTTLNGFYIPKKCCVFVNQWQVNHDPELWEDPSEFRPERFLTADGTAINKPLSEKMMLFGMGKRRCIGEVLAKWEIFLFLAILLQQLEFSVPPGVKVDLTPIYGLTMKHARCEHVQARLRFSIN
Outline: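 Luminescent demethylation readout: Luciferin-ME (100uM, equal to Km) turned over by 20nM CYP1A2 for 60 min at room temperature after NADPH regeneration addition, following 10 min compound preincubation. Normalization used 57 uM furafylline as full inhibition.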

[3] = molecular target: 3',5'-cyclic-AMP phosphodiesterase 4B (Homo sapiens) (UniProt Q07343); assay: qHTS Assay for Inhibitors of PDE-IV (AID 607; active = well fitted activation curve with a large enough effect in the main read-out, with a control signal flat, not every such curve was filed as active; inconclusive = small, poorly fitted or top-dose-only effect, or effect the other way, or a change in a side signal; note: potency is the fitted concentration of half-maximal effect); conditions: HEK293 ACTOne CNG channel cells, membrane potential fluorescence; activation (PDE inhibition): at 22.9 µM (top of the series)
UniProt Q07343, sequence (Q07343 whole entry, looked up): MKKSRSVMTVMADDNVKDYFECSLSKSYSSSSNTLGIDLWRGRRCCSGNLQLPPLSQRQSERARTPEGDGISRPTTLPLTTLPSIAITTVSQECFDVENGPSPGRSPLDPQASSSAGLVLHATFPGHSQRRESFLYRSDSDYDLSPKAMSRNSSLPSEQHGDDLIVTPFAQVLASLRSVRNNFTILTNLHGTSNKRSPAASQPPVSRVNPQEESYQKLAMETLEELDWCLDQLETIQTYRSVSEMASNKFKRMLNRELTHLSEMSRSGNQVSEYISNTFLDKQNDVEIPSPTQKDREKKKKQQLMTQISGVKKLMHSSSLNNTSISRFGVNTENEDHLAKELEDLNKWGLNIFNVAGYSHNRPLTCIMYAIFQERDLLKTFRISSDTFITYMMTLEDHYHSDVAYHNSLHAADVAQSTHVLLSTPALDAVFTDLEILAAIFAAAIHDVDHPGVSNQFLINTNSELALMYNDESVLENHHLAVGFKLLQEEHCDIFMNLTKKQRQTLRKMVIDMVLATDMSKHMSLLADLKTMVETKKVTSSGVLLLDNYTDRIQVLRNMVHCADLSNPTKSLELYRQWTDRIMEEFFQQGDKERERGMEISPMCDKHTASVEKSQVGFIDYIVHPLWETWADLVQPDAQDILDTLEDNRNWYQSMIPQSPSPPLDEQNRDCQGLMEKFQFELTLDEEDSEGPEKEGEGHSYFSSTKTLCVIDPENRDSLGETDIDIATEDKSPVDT
Outline: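 ACTOne HEK293 cells carry a modified cAMP-gated CNG channel and express endogenous PDE4; plated 1000 cells/well, compounds up to 22.9 uM final. Membrane-potential dye fluorescence (ex 535/em 590) was read; parental cells received 10 uM forskolin + 100 uM RO 20-1724.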

[4] = qHTS Assay for Identification of Small Molecule Agonists for Hypoxia Response Element Signaling Pathway (AID 914; active = well fitted activation curve with a large enough effect in the signal ratio, with a control signal flat, not every such curve was filed as active; inconclusive = small, poorly fitted or top-dose-only effect, or effect the other way, or a change in a side signal; the % refers to the signal ratio; note: potency is the fitted concentration of half-maximal effect); conditions: ME-180 HRE-bla reporter, beta-lactamase ratio, CoCl2, 17 h; activation: active compounds read high
Outline: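 ME-180 cells carrying an HRE-driven beta-lactamase reporter were treated with compounds in a titration series plus an EC50 level of CoCl2 for 17 h at 37 degrees Celsius; CCF4 readout as the 460nm/530nm ratio gave AC50 values.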

[5] = qHTS Assay for Lipid Storage Modulators (AID 1519; calls by dose curve; note: potency is the fitted concentration of half-maximal effect); conditions: Drosophila S3 cells, BODIPY lipid droplet/cell ratio, laser cytometry, cells loaded with oleic acid; activity change, negative = inhibition: at 57.5 µM (top of the series) unless noted
Outline: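 Cells seeded at 5,000 per well were treated with compounds over a concentration series and loaded with oleic acid (400 uM, as added). Lipid droplet fluorescence (488 nm excitation, 500-530 nm channel) was read by laser-scanning cytometry and normalized to 20 uM Triacsin C.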

[6] = test system: Zika virus NS2B-NS3 protease; assay: Primary screen GU AMC qHTS for Zika virus inhibitors (AID 1347154); note: potency is the fitted concentration of half-maximal effect; nearly all actives have a fitted effect of over 70% in size
Outline: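 Unlinked Zika NS2B hydrophilic domain–NS3 protease complex at 25 nM in 10 mM Tris-HCl pH 8.0, 0.01% Tween 20, with an AMC peptide substrate. Fluorescence change (340/450 nm) over 15 min at room temperature, normalized to controls, fitted to 4-parameter Hill.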

[7] = HPAF-II Cancer Cell Toxicity qHTS against the NCATS CANVASS Library (AID 1347346); note: potency is the fitted concentration of half-maximal effect; nearly all actives have a fitted effect of over 55% in size
Outline: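 Cytotoxicity read-out was CellTiter-Glo luminescence after 72 h at 37 degrees C exposure of HPAF-II cells (1000/well) to compounds in an 11-point titration.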

[8] = UWB1.289 Cancer Cell Toxicity qHTS against the NCATS CANVASS Library (AID 1347347); note: potency is the fitted concentration of half-maximal effect; nearly all actives have a fitted effect of over 60% in size
Outline: (§1)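 Cells were seeded at 1000 per well, allowed 4 h at 37 degrees C/5% CO2, then pin-treated with an 11-point compound series. After 72 h, viability was read as CellTiter-Glo luminescence following 15min at room temperature.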

[9] = OV-SAHO Cancer Cell Toxicity qHTS against the NCATS CANVASS Library (AID 1347348); conditions: OV-SAHO viability, CellTiter-Glo luminescence, 72 h; activity change, negative = cytotoxicity: at 38.3 µM (top of the series); note: % is set by controls: 0 for no effect and ±100 for the full control effect; nearly all actives have a fitted effect of over 55% in size
Outline: as §1

[10] = Panc-1005 Cancer Cell Toxicity qHTS against the NCATS CANVASS Library (AID 1347349); note: potency is the fitted concentration of half-maximal effect; nearly all actives have a fitted effect of over 60% in size
Outline: as §1

[11] = COV-362 Cancer Cell Toxicity qHTS against the NCATS CANVASS Library (AID 1347352); note: % is set by controls: 0 for no effect and ±100 for the full control effect
Outline: (§2)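 Toxicity was measured as CellTiter-Glo luminescence after 72 h exposure to an 11-point compound series. Compound was added to 1000 cells/well 4 h after seeding.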

[12] = HEK-293 Cancer Cell Toxicity qHTS against the NCATS CANVASS Library (AID 1347355); note: potency is the fitted concentration of half-maximal effect; nearly all actives have a fitted effect of over 65% in size
Outline: as §2

[13] = G06 Cancer Cell Toxicity qHTS against the NCATS CANVASS Library (AID 1347368); note: potency is the fitted concentration of half-maximal effect; nearly all actives have a fitted effect of over 60% in size
Outline: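 Viability measured by CellTiterGlo ATP luminescence after 72 hr at 37C, 5% CO2. Canine G06 glioma cells plated at 500/well. Compounds tested as 11-point qHTS titrations.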

[14] = molecular target: Nuclear receptor subfamily 1 group I member 3 (Homo sapiens) (UniProt Q14994); assay: qHTS for Constitutive Androstane Receptor (CAR) Agonist screened against the NCATS CANVASS Library (AID 1347373);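 note: every well also contained 1.5 µM PK11195 alongside the test compound; 0% is about no effect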
UniProt Q14994, sequence (Q14994 whole entry, looked up): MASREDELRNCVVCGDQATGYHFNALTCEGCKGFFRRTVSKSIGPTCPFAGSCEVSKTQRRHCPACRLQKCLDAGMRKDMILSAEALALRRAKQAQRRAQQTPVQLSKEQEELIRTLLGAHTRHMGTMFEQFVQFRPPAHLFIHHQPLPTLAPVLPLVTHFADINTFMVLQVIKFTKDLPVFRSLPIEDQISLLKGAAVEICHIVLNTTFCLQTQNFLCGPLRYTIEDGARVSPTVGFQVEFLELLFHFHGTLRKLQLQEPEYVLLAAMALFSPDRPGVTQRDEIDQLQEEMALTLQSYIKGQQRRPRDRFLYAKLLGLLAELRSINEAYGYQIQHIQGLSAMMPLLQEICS
Outline: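 Agonist mode with 1.5uM PK11195 present: compounds for 24hr on HepG2-hCAR-CYP2B6 cells. CellTiter-Fluor fluorescence (ex 405, em 540 nm) gives viability; ONE-Glo luminescence reports CAR activation.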

[15] = qHTS for Hypoxia signaling pathway (HIF-1) agonists against the NCATS CANVASS Library (AID 1347375); note: potency is the fitted concentration of half-maximal effect
Outline: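 Beta-lactamase reporter under HRE control in ME-180 cells; compounds (11-point qHTS series) added after 5 hrs plating, then 17 hrs at 37C. FRET substrate read after 2 hr; same-well CellTiter-Glo luminescence gave viability and normalization.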

[16] = qHTS for Inflammasome Signaling Inhibitors: IL-1-beta AlphaLISA screen against the NCATS CANVASS Library (AID 1347379);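 note: human THP-1 cells primed with LPS then triggered with ATP; secreted IL-1B measured as AlphaLISA emission at 615 nm; potency is the fitted concentration of half-maximal effect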
Outline: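 Secreted IL-1B from human THP-1 cells quantified by AlphaLISA 16 hr after compound addition (final up to 57.5 uM). A 1 hr compound pretreatment preceded inflammasome activation with 250 ng/mL LPS plus 1.25 mM ATP (final).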

[17] = qHTS for Antimalaria activity screened against the NCATS CANVASS Library (AID 1347380); note: potency is the fitted concentration of half-maximal effect; nearly all actives have a fitted effect of over 40% in size
Outline: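 SYBR Green fluorescence at 485/535 nm was read 18 hr after lysis. This followed a 72 hr incubation at 37C in 5% O2, 5% CO2 of Dd2-infected erythrocytes (0.3% parasitemia, 2.5% final hematocrit) with compounds titrated over 11 concentrations.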

[18] = qHTS for Activators of p53 Stress Response Pathway screened against the NCATS CANVASS Library (AID 1347388); note: potency is the fitted concentration of half-maximal effect
Outline: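 p53RE-bla HCT-116 cells (4000/well) were pre-incubated for 5 h, then treated with compound (11 points) for 16 h at 37C. After 2 h with CCF4, the 460/530 nm ratio gave reporter activation; CellTiter-Glo measured viability.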

[19] = Secretion counterscreen for inhibitors of the SERCaMP assay screened against the NCATS CANVASS Library (AID 1347390);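 note: light from luciferase secreted into medium read as a measure of general secretion; potency is the fitted concentration of half-maximal effect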
Outline: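 Counterscreen for secretory-pathway interference: after 4 h attachment, SH-SY5Y-GLuc cells were exposed 20 hours to compounds (final 0.001 - 77 uM), then coelenterazine added and GLuc luminescence recorded; Brefeldin A served as control.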
Tags give direction and shape of the fitted curve or compound fluorescence and quenching.

CC(C)(C)OC(=O)NC1[C@H]2CNC[C@@H]12 (some centres undefined)
inactive: Potency [1]

COc1ccc2c3c([nH]c2c1)C(C)=NCC3
active: Potency [2] 794 nM and 251 nM | Potency [4] 10 µM | Potency [6] 21.2 µM | Potency [15] 13.3 µM | Potency [18] 18.6 µM
inactive: Potency [11] | Potency [14]
inconclusive: Potency [3] 3.79 µM [activator, partial curve, poor fit] | Potency [5] 35.5 µM [inhibitor, single point] | Potency [7] 23.7 µM [cytotoxic, single point] | Potency [8] 4.2 µM [cytotoxic, full curve] | activity change, negative = cytotoxicity [9] -31.9% [cytotoxic] | Potency [10] 23.7 µM [cytotoxic, partial curve] | Potency [12] 20.9 µM [cytotoxic, partial curve, poor fit] | Potency [13] 37.2 µM [cytotoxic, partial curve, poor fit] | Potency [16] 43.2 µM [inhibitor, single point] | Potency [17] 0.0037 µM [cytotoxic, full curve, poor fit] | Potency [19] 24.3 µM [inhibitor, partial curve, poor fit]

Source: PubChem BioAssay (NCATS)
